Experimental findings from paper PMC4336329 (PLoS ONE, 2015) are described below.

The whole screen tested about 310,000 compounds, of which about 14,000 (4.5%) showed an effect of 50% or more. The effect is printed as a negative number. The list shows a part of the results.
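Note: peak tail current of the secondary pulse compared with the same well before compound.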

human ether-à-go-go-related gene (hERG) potassium channel, sequence (Q12809 whole entry, looked up): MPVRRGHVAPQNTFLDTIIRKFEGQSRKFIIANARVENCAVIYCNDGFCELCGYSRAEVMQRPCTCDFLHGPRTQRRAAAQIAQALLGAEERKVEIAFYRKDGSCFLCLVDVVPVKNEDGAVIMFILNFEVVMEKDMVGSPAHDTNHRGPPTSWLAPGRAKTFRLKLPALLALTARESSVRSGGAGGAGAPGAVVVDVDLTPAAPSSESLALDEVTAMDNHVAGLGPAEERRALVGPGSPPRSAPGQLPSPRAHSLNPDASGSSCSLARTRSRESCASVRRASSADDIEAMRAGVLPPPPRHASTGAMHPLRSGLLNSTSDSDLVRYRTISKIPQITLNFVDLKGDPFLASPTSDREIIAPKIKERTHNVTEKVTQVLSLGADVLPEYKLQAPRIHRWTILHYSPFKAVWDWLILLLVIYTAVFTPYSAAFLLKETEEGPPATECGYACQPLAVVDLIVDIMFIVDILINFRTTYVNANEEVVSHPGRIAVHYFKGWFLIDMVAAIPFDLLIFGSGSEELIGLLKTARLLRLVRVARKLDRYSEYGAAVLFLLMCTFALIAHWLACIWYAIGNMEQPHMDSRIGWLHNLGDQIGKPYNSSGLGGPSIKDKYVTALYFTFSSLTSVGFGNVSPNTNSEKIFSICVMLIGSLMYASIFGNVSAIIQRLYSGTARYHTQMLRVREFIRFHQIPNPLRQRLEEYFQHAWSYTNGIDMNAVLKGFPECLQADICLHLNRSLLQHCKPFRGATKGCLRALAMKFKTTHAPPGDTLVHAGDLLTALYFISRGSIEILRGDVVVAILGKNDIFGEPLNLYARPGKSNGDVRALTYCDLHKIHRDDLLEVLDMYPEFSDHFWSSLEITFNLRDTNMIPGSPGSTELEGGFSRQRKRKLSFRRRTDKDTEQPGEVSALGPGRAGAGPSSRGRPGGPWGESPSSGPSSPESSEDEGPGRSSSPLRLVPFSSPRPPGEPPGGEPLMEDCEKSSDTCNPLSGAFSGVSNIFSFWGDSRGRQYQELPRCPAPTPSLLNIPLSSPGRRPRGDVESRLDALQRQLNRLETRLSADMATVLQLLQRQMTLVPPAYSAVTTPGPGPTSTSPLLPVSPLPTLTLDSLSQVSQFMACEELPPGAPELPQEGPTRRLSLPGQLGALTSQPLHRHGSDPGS

This test has as its target human ether-à-go-go-related gene (hERG) potassium channel (human, UniProt Q12809). The test is described as follows: primary screen, population patch clamp on CHO cells stably expressing hERG.
Turning to `Nc1nc(CCl)nc(N(c2ccccc2)c2ccccc2)n1`, the “hERG current change (%, negative = inhibition) at 10uM” value was found to be 4.48%.
On to `O=C(CN1C(=O)S/C(=C/c2ccc(N3CCOCC3)cc2)C1=O)N1CCOCC1`, for which the “hERG current change (%, negative = inhibition) at 10uM” value was determined as 2.7%.
Then `Cc1ccc(/C=C2/SC(=O)N(CC(=O)N3CCOCC3)C2=O)s1`, with -3.89%; and `CCC(C)N1CNc2c(c(=O)[nH]c(=S)n2-c2cccc(C)c2)C1` (centres unmarked), with 15.7%.
Then `COc1ccc(C2NC(=O)NC(O)(C(F)(F)F)C2C(=O)c2ccccc2)cc1OC` (centres unmarked), with -15.9%; and `CN1CCC(N2CC3CC(C2)c2cccc(=O)n2C3)CC1` (centres unmarked), with -16.4%.
Consider `Cc1cnc(NC(=O)CSc2nnc(C)s2)s1`, for which the “hERG current change (%, negative = inhibition) at 10uM” value amounted to 15.6%.
In the case of `CC1(c2ccccc2)ON(c2ccccc2C(F)(F)F)C1=O` (centres unmarked), the “hERG current change (%, negative = inhibition) at 10uM” value was determined as 1.34%.
Take `CN(C)S(=O)(=O)N1CCC(CCCC2CCN(S(=O)(=O)N(C)C)CC2)CC1`: the “hERG current change (%, negative = inhibition) at 10uM” value is 4.14%.
With `O=C(O)CCC(=O)c1cccc2ccccc12`, the “hERG current change (%, negative = inhibition) at 10uM” value was 6.18%.
As to `COc1cc2c(cc1NS(=O)(=O)N1CCCC1)oc1ccccc12`, the “hERG current change (%, negative = inhibition) at 10uM” value is -10.7%.
Take `O=C(CSc1nnc2c(n1)[nH]c1ccccc12)Nc1cccc(S(=O)(=O)N2CCOCC2)c1`: the “hERG current change (%, negative = inhibition) at 10uM” value came out at 10.1%.
Regarding `CCCc1cc(=O)oc2cc(C)cc(OC(C)C(=O)NCCN3CCOCC3)c12` (centres unmarked), the “hERG current change (%, negative = inhibition) at 10uM” value is 0.296%.
As to `Cc1cc(N2CCCC2)c(C)cc1C=O`, the “hERG current change (%, negative = inhibition) at 10uM” value is -13.5%.
Consider `Cc1ccc(Cl)c(NC(=O)COC(=O)c2nn(C)c(=O)c3ccccc23)c1Cl`, for which the “hERG current change (%, negative = inhibition) at 10uM” value is 0.332%.
For the molecule `O=C(Oc1cccc2c(OC(=O)N3CCCC3)cccc12)N1CCCC1`, the “hERG current change (%, negative = inhibition) at 10uM” value is recorded as -25.5%.
For the molecule `O=C(O)Cc1cn(-c2ccccc2)nc1-c1ccccc1`, the “hERG current change (%, negative = inhibition) at 10uM” value is 6.79%.
Then `COc1ccc(Cl)cc1NC(=O)COC(=O)CCCN1C(=O)c2ccccc2C1=O`, with 9.28%; and `CCC1=Nc2cc(C(=O)N3CCC4(CC3)OCCO4)ccc2Sc2ccc(Br)cc21`, with 2.08%; and `COCCN1CCN(c2c3c(nc4cc(-c5cccc(F)c5)nn24)CCC3)CC1`, with -26.4%.
With `O=C(Cc1ccc(Br)cc1)NC1CCCc2ccccc21` (centres unmarked), the “hERG current change (%, negative = inhibition) at 10uM” value is given as 4.6%.
Take `CCc1ccccc1Nc1ccc(C(=O)O)cc1N`: the “hERG current change (%, negative = inhibition) at 10uM” value came out at 21.1%.
Take `COc1ccc(S(=O)(=O)N(C)CC(=O)Nc2cccc(C(C)=O)c2)cc1Cl`: the “hERG current change (%, negative = inhibition) at 10uM” value is listed as -19%.
Regarding `CC(=O)c1ccc(NC(=O)COC(=O)CCC(=O)c2cccs2)cc1`, the “hERG current change (%, negative = inhibition) at 10uM” value is reported as -7.17%.
For `COc1cccc(NC(=O)CCS(=O)(=O)c2ccc3c(c2)oc(=O)n3C)c1`, the “hERG current change (%, negative = inhibition) at 10uM” value stood at 12.3%.
Turning to `CC(=O)Nc1ccc(SCC(=O)Nc2cc(C(C)(C)C)nn2-c2ccccc2)cc1`, the “hERG current change (%, negative = inhibition) at 10uM” value worked out at 8.45%.
With `COCCn1c(-c2ccc(OC)cc2)cnc1SCC(=O)Nc1cccc2ccccc12` the figure was -21.8%.
For the molecule `COc1cccc2cc(C(=O)Oc3ccc(NC(C)=O)cc3)c(=O)oc12`, the “hERG current change (%, negative = inhibition) at 10uM” value was -4.07%.
Take `COc1cccc(Cn2c(N)c(C#N)c3nc4ccccc4nc32)c1OC`: the “hERG current change (%, negative = inhibition) at 10uM” value is on record as 11.7%.
With `Cc1nc2ccccn2c1C(=O)N/N=C/c1ccccc1`, the “hERG current change (%, negative = inhibition) at 10uM” value is given as 11.6%.
For the molecule `Cc1cc(Cl)c(C)c(S(=O)(=O)N2CCN(CC(=O)N3CCOCC3)CC2)c1Cl`, the “hERG current change (%, negative = inhibition) at 10uM” value was -64.8%.
Consider `Cc1cccc(C)c1NC(=O)CN1C(=O)COc2ccccc21`, for which the “hERG current change (%, negative = inhibition) at 10uM” value was determined as 10.5%.
Take `O=C(Nc1ccc(N2CCCC2)cc1)c1ccc(Cl)cc1Cl`: the “hERG current change (%, negative = inhibition) at 10uM” value stood at 29.8%.
With `CCN(CC(=O)Nc1ccc2c(c1)OCCO2)Cc1cc(=O)oc2cc(C)c(C)cc12` the figure was -29.3%; with `CN(C)Cc1c(O)ccc2occ(C(O)c3ccccc3)c12` (centres unmarked), -2.08%; with `COC(=O)c1cc2n(n1)CCN(Cc1ccc(C)cc1)C2=O`, 1.46%.
`CCOc1ccc(-c2ccc(/C=C3/C(=N)N4C=CSC4=NC3=O)o2)c([N+](=O)[O-])c1`: the “hERG current change (%, negative = inhibition) at 10uM” value was -0.868%.
As for `COc1ccc(CC(=O)N/N=C/c2cc(Br)cs2)cc1OC`, the “hERG current change (%, negative = inhibition) at 10uM” value is listed as 12.4%.
Then `O=C(Nc1ccccc1N1CCCC1)c1cccc(S(=O)(=O)N2CCOCC2)c1`, with -2.41%.
As to `Cc1ccc2cc(C#N)c(SCC(=O)N3CCCC3)nc2c1`, the “hERG current change (%, negative = inhibition) at 10uM” value is reported as -9.99%.
For the molecule `O=C(NNC(=S)Nc1ccc(Cl)cc1)c1ccccc1`, the “hERG current change (%, negative = inhibition) at 10uM” value stood at 17.7%.
With `CC(C)CN(CC(C)C)c1nnc(NC(=O)Cn2c(=O)oc3ccccc32)s1`, the “hERG current change (%, negative = inhibition) at 10uM” value was 4.92%.
In the case of `CC1CCN(C(=O)COc2ncnc3ccccc23)CC1`, the “hERG current change (%, negative = inhibition) at 10uM” value amounted to 28.2%.
Then `CC(C)[C@H](NC(=O)N1CCn2c1nc1ccccc12)C(=O)N[C@@H](C(=O)O)c1ccccc1`, with 17.7%; and `O=C(Nc1ccc(N2CCOCC2)nc1N1CCOCC1)c1cccc(C(F)(F)F)c1`, with 2.94%.
In the case of `Cc1cc(NC(=O)CSc2nc(=O)cc(N)n2-c2ccc(F)cc2)no1`, the “hERG current change (%, negative = inhibition) at 10uM” value worked out at 23.3%.
Take `COCCCn1c(=O)c2ccccc2n(Cc2cc(C(=O)OC)ccc2OC)c1=O`: the “hERG current change (%, negative = inhibition) at 10uM” value is -22.4%.
Then `CCOC(=O)Cn1nnnc1CN(Cc1ccc(OC)cc1)Cc1cc2cc(C)ccc2[nH]c1=O`, with 4.04%; and `Nc1nc(N)c2c(n1)CCCC2`, with -3.49%.
Take `O=C(CCCc1nc2ccccc2s1)Nc1nccs1`: the “hERG current change (%, negative = inhibition) at 10uM” value is on record as 7.1%.
Turning to `Cc1coc2c(C)c3oc(=O)c(CCC(=O)NCCN4CCOCC4)c(C)c3cc12`, the “hERG current change (%, negative = inhibition) at 10uM” value is -24.6%.
As to `CCN1CCN(CC(=O)N/N=C/c2cc(Br)cs2)CC1`, the “hERG current change (%, negative = inhibition) at 10uM” value is given as -18.4%.
`Cc1ccc(S(=O)(=O)N2CCCCC2)cc1C(=O)Nc1cccnc1`: the “hERG current change (%, negative = inhibition) at 10uM” value is given as -33.5%.
With `O=C(O)CC(NC(=O)C(c1ccccc1)c1ccccc1)c1ccc(F)cc1` (centres unmarked), the “hERG current change (%, negative = inhibition) at 10uM” value is listed as 0.78%.
In the case of `OC(Cn1cncn1)(Cn1cncn1)c1ccc(F)cc1F`, the “hERG current change (%, negative = inhibition) at 10uM” value is recorded as 18.7%.
As to `CCCC(=O)N(Cc1cc(=O)[nH]c2ccccc12)c1cccc(C)c1`, the “hERG current change (%, negative = inhibition) at 10uM” value turned out to be 0.414%.
